# In the supplement of paper PMC8728848:
# The other results are listed elsewhere or left out.
# Legend:
# Test in all cases: glycan array binding signal (z-score within array); higher = stronger binding
# Conditions in all cases: glycan notation: IUPAC condensed, linker removed; mutation: Y228A
# [1] = biological target: GlcNAc(a1-6)Gal(b1-4)GlcNAc
# Summary of the method: (§1)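 Glycan array binding is given as a within-array Z-score, which can be read as non-binding when negative. The arrays, 3228 of them, came from the Consortium for Functional Glycomics database and were retained only where the protein sequence was available. Z-scores were averaged across arrays of the same protein sequence at different concentrations or buffers and across linkers.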
# [2] = biological target: GlcNAc(b1-2)Gal(b1-3)GalNAc
# Summary of the method: as §1
# [3] = biological target: GlcNAc(b1-2)Man(a1-3)[GlcNAc(b1-2)Man(a1-6)]Man(b1-4)GlcNAc(b1-4)GlcNAc
# Summary of the method: as §1
# [4] = biological target: GlcNAc(b1-2)Man(a1-3)[GlcNAc(b1-2)Man(a1-6)]Man(b1-4)GlcNAc(b1-4)[Fuc(a1-6)]GlcNAc
# Summary of the method: as §1
# [5] = biological target: GlcNAc(b1-2)Man(a1-3)[GlcNAc(b1-4)][GlcNAc(b1-2)Man(a1-6)]Man(b1-4)GlcNAc(b1-4)GlcNAc
# Summary of the method: as §1
# [6] = biological target: GlcNAc(b1-2)Man(a1-3)[GlcNAc(b1-4)][GlcNAc(b1-2)Man(a1-6)]Man(b1-4)GlcNAc(b1-4)[Fuc(a1-6)]GlcNAc
# Summary of the method: as §1
# [7] = biological target: GlcNAc(b1-2)[GlcNAc(b1-4)]Man(a1-3)[GlcNAc(b1-2)Man(a1-6)]Man(b1-4)GlcNAc(b1-4)GlcNAc
# Summary of the method: as §1
# [8] = biological target: GlcNAc(b1-2)[GlcNAc(b1-4)]Man(a1-3)[GlcNAc(b1-4)][GlcNAc(b1-2)Man(a1-6)]Man(b1-4)GlcNAc(b1-4)GlcNAc
# Summary of the method: as §1
# [9] = biological target: GlcNAc(b1-2)[GlcNAc(b1-4)]Man(a1-3)[GlcNAc(b1-4)][GlcNAc(b1-2)[GlcNAc(b1-6)]Man(a1-6)]Man(b1-4)GlcNAc(b1-4)GlcNAc
# Summary of the method: as §1
# [10] = biological target: GlcNAc(b1-2)[GlcNAc(b1-4)]Man(a1-3)[GlcNAc(b1-4)][GlcNAc(b1-2)[GlcNAc(b1-6)]Man(a1-6)]Man(b1-4)GlcNAc(b1-4)[Fuc(a1-6)]GlcNAc
# Summary of the method: as §1
# [11] = biological target: GlcNAc(b1-2)[GlcNAc(b1-6)]Man(a1-6)[GlcNAc(b1-2)Man(a1-3)]Man(b1-4)GlcNAc(b1-4)GlcNAc
# Summary of the method: as §1
# [12] = biological target: GlcNAc(b1-2)[GlcNAc(b1-6)]Man(a1-6)[GlcNAc(b1-2)Man(a1-3)]Man(b1-4)GlcNAc(b1-4)[Fuc(a1-6)]GlcNAc
# Summary of the method: as §1
# [13] = biological target: GlcNAc(b1-2)[GlcNAc(b1-6)]Man(a1-6)[GlcNAc(b1-4)][GlcNAc(b1-2)Man(a1-3)]Man(b1-4)GlcNAc(b1-4)GlcNAc
# Summary of the method: as §1
# [14] = biological target: GlcNAc(b1-3)Fuc
# Summary of the method: as §1
# [15] = biological target: GlcNAc(b1-3)Gal
# Summary of the method: as §1
# [16] = biological target: GlcNAc(b1-3)Gal(b1-3)GalNAc
# Summary of the method: as §1
# [17] = biological target: GlcNAc(b1-3)Gal(b1-4)Glc
# Summary of the method: as §1
# [18] = biological target: GlcNAc(b1-3)Gal(b1-4)GlcNAc
# Summary of the method: as §1
# [19] = biological target: GlcNAc(b1-3)Gal(b1-4)GlcNAc(b1-2)Man(a1-3)[GlcNAc(b1-3)Gal(b1-4)GlcNAc(b1-2)Man(a1-6)]Man(b1-4)GlcNAc(b1-4)GlcNAc
# Summary of the method: as §1
# [20] = biological target: GlcNAc(b1-3)Gal(b1-4)GlcNAc(b1-2)Man(a1-3)[GlcNAc(b1-3)Gal(b1-4)GlcNAc(b1-2)Man(a1-6)]Man(b1-4)GlcNAc(b1-4)[Fuc(a1-6)]GlcNAc
# Summary of the method: as §1
# [21] = biological target: GlcNAc(b1-3)Gal(b1-4)GlcNAc(b1-2)[GlcNAc(b1-3)Gal(b1-4)GlcNAc(b1-6)]Man(a1-6)[GlcNAc(b1-3)Gal(b1-4)GlcNAc(b1-2)Man(a1-3)]Man(b1-4)GlcNAc(b1-4)GlcNAc
# Summary of the method: as §1
# [22] = biological target: GlcNAc(b1-3)Gal(b1-4)GlcNAc(b1-3)Gal(b1-4)GlcNAc
# Summary of the method: as §1
# [23] = biological target: GlcNAc(b1-3)Gal(b1-4)GlcNAc(b1-3)Gal(b1-4)GlcNAc(b1-2)Man(a1-3)[GlcNAc(b1-3)Gal(b1-4)GlcNAc(b1-3)Gal(b1-4)GlcNAc(b1-2)Man(a1-6)]Man(b1-4)GlcNAc(b1-4)GlcNAc
# Summary of the method: as §1
# [24] = biological target: GlcNAc(b1-3)Gal(b1-4)GlcNAc(b1-3)Gal(b1-4)GlcNAc(b1-2)Man(a1-3)[GlcNAc(b1-3)Gal(b1-4)GlcNAc(b1-3)Gal(b1-4)GlcNAc(b1-2)Man(a1-6)]Man(b1-4)GlcNAc(b1-4)[Fuc(a1-6)]GlcNAc
# Summary of the method: as §1
# [25] = biological target: GlcNAc(b1-3)Gal(b1-4)GlcNAc(b1-3)Gal(b1-4)GlcNAc(b1-2)[GlcNAc(b1-3)Gal(b1-4)GlcNAc(b1-3)Gal(b1-4)GlcNAc(b1-6)]Man(a1-6)[GlcNAc(b1-3)Gal(b1-4)GlcNAc(b1-3)Gal(b1-4)GlcNAc(b1-2)Man(a1-3)]Man(b1-4)GlcNAc(b1-4)[Fuc(a1-6)]GlcNAc
# Summary of the method: as §1
# [26] = biological target: GlcNAc(b1-3)Gal(b1-4)GlcNAc(b1-3)Gal(b1-4)GlcNAc(b1-3)Gal(b1-4)GlcNAc(b1-2)Man(a1-3)[GlcNAc(b1-3)Gal(b1-4)GlcNAc(b1-3)Gal(b1-4)GlcNAc(b1-3)Gal(b1-4)GlcNAc(b1-2)Man(a1-6)]Man(b1-4)GlcNAc(b1-4)GlcNAc
# Summary of the method: as §1
# [27] = biological target: GlcNAc(b1-3)Gal(b1-4)GlcNAc(b1-3)Gal(b1-4)GlcNAc(b1-3)Gal(b1-4)GlcNAc(b1-2)Man(a1-3)[GlcNAc(b1-3)Gal(b1-4)GlcNAc(b1-3)Gal(b1-4)GlcNAc(b1-3)Gal(b1-4)GlcNAc(b1-2)Man(a1-6)]Man(b1-4)GlcNAc(b1-4)[Fuc(a1-6)]GlcNAc
# Summary of the method: as §1
# [28] = biological target: GlcNAc(b1-3)Gal(b1-4)GlcNAc(b1-3)Gal(b1-4)GlcNAc(b1-3)Gal(b1-4)GlcNAc(b1-2)[GlcNAc(b1-3)Gal(b1-4)GlcNAc(b1-3)Gal(b1-4)GlcNAc(b1-3)Gal(b1-4)GlcNAc(b1-6)]Man(a1-6)[GlcNAc(b1-3)Gal(b1-4)GlcNAc(b1-3)Gal(b1-4)GlcNAc(b1-3)Gal(b1-4)GlcNAc(b1-2)Man(a1-3)]Man(b1-4)GlcNAc(b1-4)[Fuc(a1-6)]GlcNAc
# Summary of the method: as §1
# [29] = biological target: GlcNAc(b1-3)Gal(b1-4)GlcNAc(b1-3)Gal(b1-4)GlcNAc(b1-3)Gal(b1-4)GlcNAc(b1-3)Gal(b1-4)GlcNAc(b1-2)Man(a1-3)[GlcNAc(b1-3)Gal(b1-4)GlcNAc(b1-3)Gal(b1-4)GlcNAc(b1-3)Gal(b1-4)GlcNAc(b1-3)Gal(b1-4)GlcNAc(b1-2)Man(a1-6)]Man(b1-4)GlcNAc(b1-4)GlcNAc
# Summary of the method: as §1
# [30] = biological target: GlcNAc(b1-3)Gal(b1-4)GlcNAc(b1-3)Gal(b1-4)GlcNAc(b1-3)Gal(b1-4)GlcNAc(b1-3)Gal(b1-4)GlcNAc(b1-2)Man(a1-3)[GlcNAc(b1-3)Gal(b1-4)GlcNAc(b1-3)Gal(b1-4)GlcNAc(b1-3)Gal(b1-4)GlcNAc(b1-3)Gal(b1-4)GlcNAc(b1-2)Man(a1-6)]Man(b1-4)GlcNAc(b1-4)[Fuc(a1-6)]GlcNAc
# Summary of the method: as §1
binder,measurement,setting,value
"Epa1-NP-mutant-Y228A (Candida glabrata), Q6VBJ0 (protein) MILNPALFLNKCVCIYTTLILLLLTNGGYATSSNDISLASKDPTTFPLGCSPDITTPKKGLSMELYSYDFRKKGSYPCWDAAYLDPNYPRTGYKSHRLLAKVDGVTGNINFYYHATKGCTPQLGHLPASYNYPKPLTMTNFTMLLYGYFRPKVTGFHTFTISADDLLFVNFGAGNAFDCCRRDSSADHFGNYQAYAIWGSKTAKDELTVHLDAGVYYPIRLFYNNREADGALSFTFKTESNENTVSDFSEYFFSLDDTEEGCPGLISYDSSCASVKTSKIIGIDYHTETPNENLVPITKTIYHLGIPCTGTTTTPLCGSGFYDPLANKCVTINTSSTSSVTKTTSHTTSKEVSFHSSISSQKTLIPKSIPSPYGPIKSQSIPTEMETSSEISSSEYAFSDVISTPSHSPYTKKHSSLNSSSYTSTVIHSLTSYSISQGIFSTSLSEQNITSKSSTDKFSTATSMSNNITQSSIIISQFSTNNENYTTTSMHTSSDKISTETLNNSISTTTSILFSNSSTILKNNTTIISSDKDTHYHPVNPTIVCSTNKTEIICASITQPSISNSNNHWSSSVLKFNSTTVRSTLPSSAGSNETSINVPFSSSTESNTSTSSTSTSNSKMVRSTLPSSAGSNETSISVPFSSSTESNTSTSSTSTSNSKMVRSTLPSSAGSNETSINVPFSSSTESNTSTSSTSTSNSKTVRSTPFSSAGIIMTSLSQRNNKSASSYASSNSKCYNTADSCRKVHSTPSYLLTSSYTSEGVDYDCSLVSTKLKINDTNCVNNKHTTKSCLKTSVTTTIPTLEIKTARKSSSNTIGLHSYPTSSPNKSISSAPIIGYISSFKTIKTASPSYQTSDLTTITTITSLNNPGSTAVENTHESNDKSRKTSSNDISSKHSVIKETKDAVESSNKSHQTNTLKCSSIIIASSSHNSYESLGGTTLTLTLSKVYSPQNNDTLPFLEISEVNPSRTVLPESSKMMQYLTSTEERNKTARNTIATNIVSISTFHFEGEGNAIRMGYTQLLLMLIGIIVMNIGT",glycan array binding signal (z-score),[1],0.062
same,glycan array binding signal (z-score),[2],-0.149
same,glycan array binding signal (z-score),[3],-0.348
same,glycan array binding signal (z-score),[4],-0.119
same,glycan array binding signal (z-score),[5],-0.292
same,glycan array binding signal (z-score),[6],-0.196
same,glycan array binding signal (z-score),[7],-0.161
same,glycan array binding signal (z-score),[8],-0.141
same,glycan array binding signal (z-score),[9],-0.123
same,glycan array binding signal (z-score),[10],-0.21
same,glycan array binding signal (z-score),[11],-0.356
same,glycan array binding signal (z-score),[12],0.217
same,glycan array binding signal (z-score),[13],-0.276
same,glycan array binding signal (z-score),[14],-0.107
same,glycan array binding signal (z-score),[15],-0.207
same,glycan array binding signal (z-score),[16],-0.239
same,glycan array binding signal (z-score),[17],-0.22
same,glycan array binding signal (z-score),[18],-0.228
same,glycan array binding signal (z-score),[19],-0.144
same,glycan array binding signal (z-score),[20],-0.237
same,glycan array binding signal (z-score),[21],-0.046
same,glycan array binding signal (z-score),[22],-0.317
same,glycan array binding signal (z-score),[23],-0.074
same,glycan array binding signal (z-score),[24],0.039
same,glycan array binding signal (z-score),[25],-0.074
same,glycan array binding signal (z-score),[26],-0.198
same,glycan array binding signal (z-score),[27],-0.139
same,glycan array binding signal (z-score),[28],-0.13
same,glycan array binding signal (z-score),[29],-0.273
same,glycan array binding signal (z-score),[30],0.052
